Data from patent US10377828B2, “Combination therapy for neoplasia treatment” (Boehringer Ingelheim International GmbH, priority 2013, dated 2019).

Tests used:
Assay type in all cases: cell-based, human
VCaP cells [1] = assay: 2D cell proliferation assay (CellTiter-Glo); conditions: 10% FCS-containing growth medium, 5 days, single agent or combination
Method: (§1) The following method was used to determine the inhibitory effect of IGF ligand-neutralizing mAbs and androgen signaling inhibitors on the growth of prostate cancer cell lines. Assays were performed in cell growth medium containing 10% serum.
(§2) Adherent cells were detached with trypsin/EDTA solution (GIBCO, #043-9031 FU), resuspended in growth medium, centrifuged, resuspended in assay medium (supplemented with 10% heat inactivated FCS and 2 mM L-glutamine) and diluted to 5,000-40,000 cells per mL. 100 μL/well cell suspension was added to each well of a sterile flat-bottom white 96-well plate (PerkinElmer, #6005280) and plates were incubated overnight in a humidified incubator set at +37° C. and 5% CO2. On the next day supernatants were aspirated and 35 μL/well assay medium was added to all wells.
(§3) Serial dilutions of IGF mAb_1 and mAb_2 (1 μM highest concentration), MDV-3100 (10 μM highest concentration), abiraterone acetate (100 μM highest concentration) were prepared on a separate plate in assay medium (no growth factors or hormones supplemented). All agents were tested as single agents or in combination. All samples were tested in triplicate wells (100 μL/well assay). Plates were incubated for 5 days in a humidified incubator at +37° C. and 5% CO2. After this incubation period, CellTiter-Glo buffer, substrate and test plates were equilibrated to RT. CellTiter-Glo is a bioluminescent assay (Promega, #G7571) designed to determine the number of viable cells in culture, in which the generation of a luminescent signal is proportional to the amount of ATP present in cells. 100 μL of freshly mixed CellTiter-Glo reagent was added to each well. After 2 min on an orbital shaker (MTS 2/4, IKA) and 10 min incubation at RT, luminescence was recorded (luminescence reader (Genios Pro, Tecan or Victor X4, Perkin Elmer), integration time 1 sec).

DUCaP cells = assay: 2D cell proliferation assay (CellTiter-Glo); conditions: 10% FCS-containing growth medium, 5 days, single agent or combination
Method: as §1, §2, §3

MDA PCa 2b cells = assay: 2D cell proliferation assay (CellTiter-Glo); conditions: 10% FCS-containing growth medium, 5 days, single agent or combination
Method: as §1, §2, §3

VCaP cells [2] = assay: 3D soft agar cell proliferation assay; conditions: single agent
Method: IGF mAb_2 was used for the treatment of VCaP cells in FIG. 2B. FIG. 2C (IGF mAb_1) and FIG. 2D (IGF mAb_2) show the results of MDA PCa 2b cells. […] In a 3D soft agar cell proliferation assay (FIG. 2G), VCaP cells were treated with abiraterone acetate and IGF mAb_2.

VCaP cells [3] = assay: Thymidine incorporation assay; conditions: 96 hours, 10 μM MDV-3100 and/or 1 μM IGF mAb_1, compared to untreated controls
Method: VCaP cells were treated with 1 μM of IGF mAb_1 and 10 μM of MDV-3100 and the combination of both agents and incubated as triplicates in flat-bottom 96-well plates for 96 hours at a density of 5×10^4 cells per well, in the absence of R1881. For the last 24 hours of incubation, ^3H-thymidine (0.4 μCi/well; PerkinElmer, NET355001 MC) was added. Afterwards, the plates were frozen and incubated at −20° C. for 24 h. For harvesting, the plates were thawed and 40 μL Trypsin was added to each well to detach the cell fragments. The suspension was transferred to filter plates. The plates were then washed three times with distilled water and dried at 60° C. for 3 h. 25 μL per well Microscint were added and the proliferation rate was determined by measuring thymidine incorporation (CPM; counts per minute) using a liquid scintillation counter (1450 Microbeta Wallac Trilux, Perkin-Elmer).

VCaP cells [4] = assay: Cell cycle analysis using flow cytometry (propidium iodide); conditions: 24 h, 48 h and 72 h, 10 μM MDV-3100 and/or 1 μM mAb
Method: 4×10^5 VCaP cells were treated with 1 μM of IGF mAb_1 and 10 μM of MDV-3100, and the combination of both agents, and incubated in 6-well plates at 37° C. for 24 h, 48 h and 72 h. Subsequently, the supernatant was transferred to FACS tubes, adherent cells were detached with trypsin and collected in the respective FACS tubes. After centrifugation, the medium was discarded and the cell pellet was fixed in ice-cold 70% ethanol for a minimum of 2 h at 4° C. After removing the ethanol entirely, fixed cells were stained with propidium iodide (10 μg/ml; Sigma; P4864-10 mL) in a hypotonic buffer solution (0.1% sodium citrate, 0.1% (v/v) triton X-100, 100 μg/ml DNase-free RNase A) and incubated in the dark at room temperature for 30 minutes. Cells were analyzed using the Becton Dickinson FACS Canto II Flow cytometer and data was evaluated with the FACS Diva software.

VCaP cells [5] = assay: Assessment of caspase 3 activity (apoptosis induction); conditions: 10 μM MDV-3100 and/or 1 μM mAb, up to 96 hours
Method: To acquire live cell images of cells undergoing caspase-3/7 mediated apoptosis upon treatment with different concentrations of MDV-3100, IGF mAb_1, and the combination of both agents, the CellPlayer™ 96-Well Kinetic Caspase-3/7 Reagent (Essen BioScience; #4440) was used. 50000 VCaP cells/100 μl/well were seeded and treated on the next day with the respective concentrations of both agents in growth medium in the absence of R1881. The Caspase-3/7 reagent was diluted to a final concentration of 5 μM in 100 μl per well of growth medium and added to the medium. The plate was placed within a microplate tray into the IncuCyte™ 2011A and 3 images per well were acquired every 4 hours for 7 days using the phase contrast and fluorescence channels.

[6] = system: AKT phosphorylation, PARP cleavage, p21, CDK2, Cyclin E, PCNA in VCaP cells; assay: Western blot time course of AKT phosphorylation, apoptosis and cell cycle regulators
Method: One×10^6 and 4×10^6 cells were plated in 6-well plates and 10 cm dishes, respectively, in medium containing 10% […] and AR signaling inhibitor. […] Cell lysates were snap frozen and stored at −80° C.
Western blotting was performed loading 30-50 μg of total protein lysates on a 4-12% Bis-Tris PAG (Bio Rad) and blotting with the Bio Rad trans-Blot® Turbo system using a PVDF membrane. […] Cell cycle regulators and markers of proliferation and apoptosis were analyzed using the following antibodies: p21 Waf1/Cip1 (12D1; #2947, Cell Signaling; 1:1000), CDK2 (78B2; #2546, Cell Signaling; 1:1000), Cyclin E (C-19; sc-198, Santa Cruz; 1:1000), PCNA (#2586, Cell Signaling; 1:2000), and PARP (#9542, Cell Signaling; 1:1000).
Antibody dilutions were prepared in 5% BSA or 5% non-fat dry milk in TBS-0.5% Tween20 (TBS-T). Following washes in TBS-T membranes were incubated with a polyclonal HRP-conjugated goat anti-rabbit secondary antibody (DAKO, #P0448) for 1 hour and after further washes in TBS-T antibody reactivity was detected by means of ECL/Super ECL (GE Healthcare) and exposure on ImageQuant LAS4000. […]

Molecule | effect on 2D cell proliferation (in words) (VCaP cells [1]) | effect on 2D cell proliferation (in words) (DUCaP cells) | effect on 2D cell proliferation (in words) (MDA PCa 2b cells) | inhibition of cell proliferation (VCaP cells [2]) | reduction of proliferative activity (thymidine incorporation) (VCaP cells [3]) | sub-G1 apoptotic cell population (VCaP cells [4]) | induction of caspase 3 activity / apoptosis (in words) (VCaP cells [5]) | PARP cleavage ([6]; 10 μM MDV-3100 and/or 1 μM IGF mAb_1, 8 h, 24 h, 48 h and 72 h) | AKT phosphorylation (AKT-Ser473) ([6]; Western blot time course up to 120 hours)
IGF mAb_2: antibody against IGF ligand having a heavy chain of SEQ ID NO: 29 and a light chain of SEQ ID NO: 30 (antibody, listed as Homo sapiens, /mol_type=“protein” /organism=“Homo sapiens”) heavy: QVELVESGGGLVQPGGSLRLSCAASGFTFSNYWMHWVRQAPGKGLEWVSGISGWSSWTYYADSVKGRFTISRDNSKNTLYLQMNSLRAEDTAVYYCARFGIDAYTKVYFDYWGQGTLVTVSS[sequence of human IgG1 constant region not given] light: DIELTQPPSVSVAPGQTARISCSGDNIPLKYVSWYQQKPGQAPVLVIHDDNKRPSGIPERFSGSNSGNTATLTISGTQAEDEADYYCQSYDYFPKFVVFGGGTKLTVLGQPKAAPSVTLFPPSSEELQANKATLVCLISDFYPGAVTVAWKGDSSPVKAGVETTTPSKQSNNKYAASSYLSLTPEQWKSHRSYSCQVTHEGSTVEKTVAPTECS | inhibition of cell proliferation | inhibition of cell proliferation | inhibition of cell proliferation | 96% | – | – | – | – | –
IGF mAb_1: antibody against IGF ligand having a heavy chain of SEQ ID NO: 39 and a light chain of SEQ ID NO: 40; fully human IgG1 (antibody, listed as Homo sapiens, /mol_type=“protein” /organism=“Homo sapiens”) heavy: QVELVESGGGLVQPGGSLRLSCAASGFTFTSYWMSWVRQAPGKGLELVSSITSYGSFTYYADSVKGRFTISRDNSKNTLYLQMNSLRAEDTAVYYCARNMYTHFDSWGQGTLVTVSS[sequence of human IgG1 constant region not given] light: DIVLTQPPSVSGAPGQRVTISCSGSSSNIGSNSVSWYQQLPGTAPKLLIYDNSKRPSGVPDRFSGSKSGTSASLAITGLQSEDEADYYCQSRDTYGYYWVFGGGTKLTVLGQPKAAPSVTLFPPSSEELQANKATLVCLISDFYPGAVTVAWKGDSSPVKAGVETTTPSKQSNNKYAASSYLSLTPEQWKSHRSYSCQVTHEGSTVEKTVAPTECS | inhibition of cell proliferation | inhibition of cell proliferation | inhibition of cell proliferation | – | approximately 50% | modest increase in apoptosis; also recorded: increases with time | modest increase in apoptosis; also recorded: an increase in apoptotic events | modest increase in apoptosis | blockade of AKT phosphorylation

“Also recorded” adds a separate entry of the source.
